For 42 sequences, binding signal results are on record in paper PMC7819943, “Rice protein-binding microarrays: a tool to detect cis-acting elements near promoter regions in rice”.

The list shows a part of the results.

The target of this assay is T1, OsWOX13 (Oryza sativa, UniProt Q5QMM3 1-267).
T1 sequence: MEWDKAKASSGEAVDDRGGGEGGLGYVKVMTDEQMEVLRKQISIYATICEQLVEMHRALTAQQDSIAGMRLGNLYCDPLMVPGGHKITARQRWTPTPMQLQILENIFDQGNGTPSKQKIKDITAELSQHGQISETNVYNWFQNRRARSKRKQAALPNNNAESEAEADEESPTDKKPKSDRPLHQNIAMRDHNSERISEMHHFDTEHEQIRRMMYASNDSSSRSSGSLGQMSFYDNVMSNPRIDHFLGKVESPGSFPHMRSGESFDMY
As to the kind of experiment: protein-binding microarray (RPBM); PBS, 2% BSA, 51.3 ng/ul salmon testes DNA, 50 uM zinc acetate, 200 nM TF, 25 C, 1 h; high values mean tight binding. The following applies: protein: recombinant; tags: N-terminal polyhistidine and DsRed monomer fusion (pET32a); label: CyDye5-dUTP incorporated in the synthesized complementary strand; 3' TTTTT single-stranded linker to array surface; dsDNA, one strand shown. An outline of the steps: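 A custom Agilent array was converted to double-stranded form by primer extension with Cy5-dUTP and blocked with 2% BSA. Protein at 200 nM in PBS with 2% BSA, salmon testes DNA and 50 µM zinc acetate was applied for 1 h at 25 °C, followed by washing. The proteins were polyhistidine–DsRed N-terminal fusions of transcription factors, expressed in E. coli BL21-CodonPlus and Ni–NTA-purified. The binding signal is per-feature fluorescence intensity (arbitrary units) from an Axon 4000B scanner.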
On to “TTCCTACGTTTTATCAATCATGCGATTCAAAGGGGCCCTCCGGAGTCACCTAGTGCAG”, for which the binding signal is 8010 fluorescence intensity (a.u.).
For the sequence “ATTTGCTGTGATTATTGTGATATCCACTTTATATAACTGCCGGAGTCACCTAGTGCAG”, the binding signal was 9290 fluorescence intensity (a.u.).
On to “GGTCTTGTTAATCGCTTAATTACTCACATAGTTAAGAAAACGGAGTCACCTAGTGCAG”, for which the binding signal was 6860 fluorescence intensity (a.u.).
Then “GAAATGAAATTACTACTGTAAATAATCTTGTTAAGTAGGACGGAGTCACCTAGTGCAG”, with 3750 fluorescence intensity (a.u.); and “AAACTGTTCAAATTTCAATTTGTTATATATCGTAACGTGCCGGAGTCACCTAGTGCAG”, with 6160 fluorescence intensity (a.u.).
As for “CAATAGTAACAAGGGAGATGTGATTGACGACGCAGGATTCCGGAGTCACCTAGTGCAG”, the binding signal was 13800 fluorescence intensity (a.u.).
For the sequence “CAAAGAGTCAAATTATCCAAATTTGTGCATTAAACAGTGCCGGAGTCACCTAGTGCAG”, the binding signal is 5850 fluorescence intensity (a.u.).
For the sequence “ATATATCAATCAGGTAAGGCGCAACATGATGTCTCGTTCACGGAGTCACCTAGTGCAG”, the binding signal is 12300 fluorescence intensity (a.u.).
Regarding “ATGATTAGAAGAATACACTGCGTTGAATGAACGGCAATAACGGAGTCACCTAGTGCAG”, the binding signal is 13500 fluorescence intensity (a.u.).
As for “GTACTAACTGGTTTCGTTCAATTTATTTTACATCTTATCACGGAGTCACCTAGTGCAG”, the binding signal was 8080 fluorescence intensity (a.u.).
Take “ACCTTCTAGTCAAATTAAAATTAAGGTGTTCACAGCCTACCGGAGTCACCTAGTGCAG”: the binding signal is 5680 fluorescence intensity (a.u.).
For “TACACATTTTCTCTCTGATTTACGAGTCTAATGACTGATTCGGAGTCACCTAGTGCAG”, the binding signal was 3420 fluorescence intensity (a.u.).
On to “TCACCCGGATATTAATTGAAACAAAGTTCAGTACAGAGTACGGAGTCACCTAGTGCAG”, for which the binding signal was 11300 fluorescence intensity (a.u.).
For the sequence “CACCTCAAATTTGGAAACAACTGTCACCGCCATCGACGATCGGAGTCACCTAGTGCAG”, the binding signal is 3220 fluorescence intensity (a.u.).
On to “CGATTAGGTCTAACTGATTAACTCTTAATTTTGCGTCTCACGGAGTCACCTAGTGCAG”, for which the binding signal is 8580 fluorescence intensity (a.u.).
Take “GAAATCATTTCCATTTCCAATTTAGCCAAACATTGCCTCACGGAGTCACCTAGTGCAG”: the binding signal is 4940 fluorescence intensity (a.u.).
As to “AAATTTTGACTAATAATTGAACAAAAGTATACTTCATATGCGGAGTCACCTAGTGCAG”, the binding signal is 21200 fluorescence intensity (a.u.).
As for “ATCCACAATTAGCACATTGTTACTATAGCATCACATAGGCCGGAGTCACCTAGTGCAG”, the binding signal was 3500 fluorescence intensity (a.u.).
For “TTACTCAGATCAGATTAATTTGAACCAAACTACCATTCGACGGAGTCACCTAGTGCAG”, the binding signal was 3960 fluorescence intensity (a.u.).
Regarding “CCAAAGACCAAGAAATAATTATTATCATCTTGTAGTTTGGCGGAGTCACCTAGTGCAG”, the binding signal is 3240 fluorescence intensity (a.u.).
In the case of “CATTTTGTCAATTCAATAATTAACATCACCCAAAACTTAACGGAGTCACCTAGTGCAG” it was 15000 fluorescence intensity (a.u.); in that of “AAGACATGATTATTTTGTATTATGACGTTAAATAAAGCCCCGGAGTCACCTAGTGCAG”, 28200 fluorescence intensity (a.u.); in that of “ACTGGAACAGATGAAATTGGTAGAAATTGGAATCGGTCATCGGAGTCACCTAGTGCAG”, 9490 fluorescence intensity (a.u.).
In the case of “TAGACTGATTATAATTATTTACACGTACCATAATGGTTTACGGAGTCACCTAGTGCAG” it was 36400 fluorescence intensity (a.u.).
In the case of “TGACAAAATATTGACAGGATTTCGTTACCAAAATTTGGCACGGAGTCACCTAGTGCAG”, the binding signal was 6100 fluorescence intensity (a.u.).
With “AACGTAAATTAATAACAAAACAAATTACAGATTTCGCCTGCGGAGTCACCTAGTGCAG”, the binding signal is 31100 fluorescence intensity (a.u.).
On to “GACCGAGATGAGATTGATAAACTACCCAAGTTAGCAAAGTCGGAGTCACCTAGTGCAG”, for which the binding signal is 19100 fluorescence intensity (a.u.).
For the sequence “TATTAATTAATTAACCTTAATTAATAAACAGGCAAAAGAACGGAGTCACCTAGTGCAG”, the binding signal is 40700 fluorescence intensity (a.u.).
Consider “GTAACAGAATCTAATGACATCAATTATAATCACGTCAGGTCGGAGTCACCTAGTGCAG”, for which the binding signal was 17300 fluorescence intensity (a.u.).
On to “ATACAGTGAATAGTGATATATGATTGGAGGGACAAGCGGACGGAGTCACCTAGTGCAG”, for which the binding signal was 9480 fluorescence intensity (a.u.).
Then “GTACTAGCTTAATTAATGCAACGGAAAGATTAAACTTTTGCGGAGTCACCTAGTGCAG”, with 5740 fluorescence intensity (a.u.); and “GTTAGATACCGTTAATTTTGTCAAAATGACCAGATTGCCCCGGAGTCACCTAGTGCAG”, with 5830 fluorescence intensity (a.u.); and “CATATTATCAAATCATGGAGCAATTAGGCTTAAAAGATTCCGGAGTCACCTAGTGCAG”, with 7060 fluorescence intensity (a.u.).
With “CTGTATTATCTGATTAATTGTTGTCAATTCATCAGACAAACGGAGTCACCTAGTGCAG”, the binding signal was 25000 fluorescence intensity (a.u.).
For “CCATTGTGACTGGCCTAATTAACCGAATCAAAGATACAGTCGGAGTCACCTAGTGCAG”, the binding signal is 17100 fluorescence intensity (a.u.).
“ATGTAATTATCATTTATTTTATTATGACTTGATTCGTCATCGGAGTCACCTAGTGCAG”: the binding signal was 29400 fluorescence intensity (a.u.).
Take “TGTAATTACCTTTTACAAACTTTTATGCTATTTCCTCCTACGGAGTCACCTAGTGCAG”: the binding signal was 16700 fluorescence intensity (a.u.).
Then “TTCAAATTTTATATAGTCCAATCAAACTCGAATGGAGAAACGGAGTCACCTAGTGCAG”, with 5270 fluorescence intensity (a.u.).
Turning to “TTTTAATTTTAACGTGAACTAAACACATCATAAACGGATTCGGAGTCACCTAGTGCAG”, the binding signal is 19900 fluorescence intensity (a.u.).
Consider “AATAATTGATCAGGTTTTGTGGCAATAGATAGTTCGTATCCGGAGTCACCTAGTGCAG”, for which the binding signal is 28200 fluorescence intensity (a.u.).
As for “TATATATATAATGCTTCAATCATACAGATCTGGAGTACAACGGAGTCACCTAGTGCAG”, the binding signal is 4720 fluorescence intensity (a.u.).
With “CCCCTTAATGATTTCAGTTCTTCAGCTTCAGTAATCAGTACGGAGTCACCTAGTGCAG”, the binding signal was 11300 fluorescence intensity (a.u.).
